# Results as given in the RNAGym collection of RNA variant scans (doi:10.7554/elife.90254).
# The source gives no read counts; variants with many changes may rest on few reads.
# B1: LINE1-mini (parent)
# chain: GGCAGAGCUCAACACAGCGUGGCAAAGUGGCUGUGGCUAGACUGCC
# Variants of: B1
# Experiment: self-cleavage, relative activity (ratio to wild type); higher = more cleavage; in vitro, sequencing; the parent is a self-cleaving ribozyme
row,Variant,self-cleavage
1,UGCAGAACUGAACACAGCGUGACAAAGUGGCUGUGGCUAGACUGCC [G1U G7A C10G G22A],0.03
2,UGCAGAGCUCAACACAGCGUGGCAAAGGGGCUGUGGCUACUCUACU [G1U U28G G40C A41U G44A C46U],0.03
3,UGCAGAGCACAACACAGCGUGGCAAAGUGGCUGUGGCUAGAGUGCC [G1U U9A C42G],0
4,UGCAAAGCUCAUCACAGCGUGGCAAAGUGGCUGUGGCUAGACUGGC [G1U G5A A12U C45G],0.13
5,UGCAGAGCUCAACACAGCGUCGCAAAGUGGCUGUGGCUAUACUGCC [G1U G21C G40U],0.18
6,UGCAGAGCUCAACACACCGUGGCAAAGUGGCUGUCGCUAGACUGCC [G1U G17C G35C],0.04
7,UGCAGAGCUCAACACAGCGUGGCAAAUUGGCUGUGGCUAAACUGCC [G1U G27U G40A],0.11
8,UGCAGAUCUCAACACAGCGUGGCAAAGUGGCUGUGGCUAGACUGCG [G1U G7U C46G],0.03
9,UUCAGAGCUCAUCACAGCGUGGCUAAGUGGCUGUGGCUAGACUGCC [G1U G2U A12U A24U],0.03
10,UGCACAGCUCAACACAGUAUGGCAAGGUGGCUGCGGCUAGACUGCC [G1U G5C C18U G19A A26G U34C],0.04
11,UGCAGAGCUCAACACAGCAUGACAAAGUGGCUGUGGCUAGACUGCC [G1U G19A G22A],0.09
12,UGCACAGCUAAACACAGCCUGGCAAAGGGGCUGUGGCUAGACUGCC [G1U G5C C10A G19C U28G],0.01
13,UGCAGACCUCAAUACAGCAUGGCAAAGUGGCUGUGGCUAGACUCCC [G1U G7C C13U G19A G44C],0.02
14,UGCAUAGCUCAACACAGAGUGGCAAAGUGGGUGUGGCUAGACUGCC [G1U G5U C18A C31G],0.04
15,UGCAGAGCACAACACAGCGUGGCAAAGUGGGUGUGGCUAGACUGCC [G1U U9A C31G],0
16,UGCAAAGCUCAACACAGCGUUGCAAAGUGUCUGUGGCUAUACUGCC [G1U G5A G21U G30U G40U],0.02
17,UGCAGACCUGAACACAGCGUGGCAAAGUGGCUGUGGCUAGCCUGCC [G1U G7C C10G A41C],0.02
18,UGCAGAGCUCAACACAGCGUGGCAAAGUGGCUGUGGCGAGACUCCC [G1U U38G G44C],0.01
19,GACCGAGCUCAACACAGCUUGGCAAAGUGGCUGUGGCUAGACUGCC [G2A A4C G19U],0.08

row,Variant,self-cleavage
1,UGCACAGAUCAACACGGCGAGGCAAACUGGCUGUGGCUAGACUGCC [G1U G5C C8A A16G U20A G27C],0.03
2,UGCAGAGCUCAACACACUGUGGCAAAGUGGCUGUGGCUAGACUGCC [G1U G17C C18U],0.02
3,UGCAGAGCUCAACACAGCGUUGCAAAGUGGCUGUGGCUAGACUGCA [G1U G21U C46A],0.19
4,UGCAGACCUCAACACAGCGUGGCAAAGUGGCUGUUGCUAAACUGCC [G1U G7C G35U G40A],0.07
5,UGCAGAGCUCAACACACCGUGGCAAAGUGGCUGUGGCGAGACUGCC [G1U G17C U38G],0.01
6,UGCAGAACUCAACACCGCUUGGCAAAGUGGCUGUGGCUAGACUGCC [G1U G7A A16C G19U],0.03
7,UUCAGAGCUCAACACAGCGUGGAAAAGUGGCUGUGGCUAGACUGCC [G1U G2U C23A],0.38
8,UGCAGAGCUCAACACAGCGUGACAAGGUGGCUGUGGCUCGACUGCC [G1U G22A A26G A39C],0.03
9,UGCAGAGCUCAACACAGCCUGGCAAAGAGGCUGUGGCGAAACUGCC [G1U G19C U28A U38G G40A],0.01
10,UGCAGAGCUCAACACAGCGUCGCAAAGUUGCUGUGGCUAGACUGCC [G1U G21C G29U],0.18
11,UGCAGAGCGCAGCACAGCGUUGCAAAGUGGCUGUGUCGAGACUGCC [G1U U9G A12G G21U G36U U38G],0.01
12,UGCAGAGCGCAAAAAUGCGCGGCAAAGUGGCUGUGGUUAGACUGCC [G1U U9G C13A C15A A16U U20C C37U],0.01
13,UGCAAAGCUCAACACAGCGUGGCAAAGUGUCUGUGGCUAGACUGCC [G1U G5A G30U],0.02
14,UGCAGAGCUCAACACAACGUGGCUAAGUGGCUGUCGCUAGACUGCC [G1U G17A A24U G35C],0.04
15,UGCAGAGCUCAACACAGCGUGUCAGAGUGGCUGCGGCUAGACUGCC [G1U G22U A25G U34C],0.01
16,UGCAUAGCUCAACACAGCGUGGCAAAGUGGCUGUGGCUAGUCUGCC [G1U G5U A41U],0.26
17,GACCGAGCUCAAUACAGCGUGGCAAAGUGGCUGUGGCUAGACUGCC [G2A A4C C13U],0.92
18,UCCAGAGCUCAACACAGCGUGGCAAAGCGGCUGUGGCUAGACUGCC [G1U G2C U28C],0.03
19,GACCGAGCUCCACACAGCGUGGCAAAGCGAGUGUGGCUAGAUUGCC [G2A A4C A11C U28C G30A C31G C42U],0.01

row,Variant,self-cleavage
1,UGCAAAGCUCAACACAGCGUGGCAAAGUGGCUGAGGCUAGACUGCC [G1U G5A U34A],0.07
2,UGCAGACCUCAACGCAGCGUGGCAAAGUAGCUGUAGCUAGACUGCC [G1U G7C A14G G29A G35A],0.03
3,UGCAGAGCGCAACACAGCGUGGCAAUGUGGCUGUGGCUAGACUGCC [G1U U9G A26U],0.07
4,UGCAGAGCUCAACACAGCGUUGCAAGGUGGCUGUGGCUAGACUGAC [G1U G21U A26G C45A],0.56
5,UUUAGAUCUAAACACAGCGUGGCAAAGUGGAUGUGGCUAGACUGCC [G1U G2U C3U G7U C10A C31A],0.05
6,UGCAGAGCUCAACACAGCGUGGCAAAGUUGCCGUGGCUAGACUGCC [G1U G29U U32C],0.07
7,UGCACUGCUCAACACAGCGUGGCAACGUGGUUGUGGCUAGACUGGC [G1U G5C A6U A26C C31U C45G],0.06
8,UGCAGAGCUCAACACAGCGUGGCAAAGUUGCUGUGGCUAUACUGCC [G1U G29U G40U],0.44
9,UGCAUAGUUCUACACAGCGUGGCAAAGUCGCUGUGGCUAGACAUCC [G1U G5U C8U A11U G29C U43A G44U],0.02
10,UGCAGAGCUCAACACAGCGUGGCAAAGUGGCAGUGGCUAGACCGCC [G1U U32A U43C],0
11,UGCAGAACUCAAGACAGCUUCGCAAAGUGGCUGUGGCUAGACUGCC [G1U G7A C13G G19U G21C],0.03
12,UGCAGAGCAUAACACAGCGUGGCAAAGUGGCUGUGCCUAGACUGCA [G1U U9A C10U G36C C46A],0.02
13,UGCAGAGCUCAACACAACGUGGCAAAGUGGCUGUGGCUAUACUGCC [G1U G17A G40U],0.02
14,UGCAGAGCUCAACACAACGUGGCAAAGUGGCUGUGGCUAAACUGCC [G1U G17A G40A],0.02
15,UGCAGAGCUCAACACAGCGUGGCAAAGUGGCUGUGGCUAGACAGCU [G1U U43A C46U],0.2
16,UGCAGACCUGAACACAGCGUGGCAAAGUGGCUGUGGCUAGACUGCC [G1U G7C C10G],0.01
17,UUCAGAGCUCAACACAGCGUGGCAAACUGGCCGUGACUAGACUGCC [G1U G2U G27C U32C G36A],0.03
18,UUCAGAACUCAACUCAGCGUGGCAAAGUGGUUGUGGCUAGACUGCC [G1U G2U G7A A14U C31U],0.03
